{"source": "the supplement of paper PMC4604168 (melanoma cell lines)", "note": "This is one part of the list. Single values are uncertain, as repeats are few or missing.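 Note: cell number obtained by counting DAPI-stained nuclei in high-throughput microscope images with image analysis software, screen run in 1,536-well plates.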"}
{"test_system": "LOXIMVI", "assay": "cell count relative to DMSO control; melanoma cells; higher = more viable cells", "details": "library dose: low library concentration; 72 h", "units": {"cell count": "%"}}
{"smiles": "C[C@]12O[C@H](C[C@]1(O)CO)n1c3ccccc3c3c4c(c5c6ccccc6n2c5c31)CNC4=O", "note": "[Lestaurtinib] + OCc1c[nH]c2ccccc12 [Indole-3-carbinol] (first compound 0.004 µM, partner dose 0.8 µM)", "cell count": 83.4}
{"smiles": "C[C@]12O[C@H](C[C@]1(O)CO)n1c3ccccc3c3c4c(c5c6ccccc6n2c5c31)CNC4=O", "note": "[Lestaurtinib] + CO[C@H]1C[C@@H]2CC[C@@H](C)[C@@](O)(O2)C(=O)C(=O)N2CCCC[C@H]2C(=O)O[C@H]([C@H](C)C[C@@H]2CC[C@@H](OCCO)[C@H](OC)C2)CC(=O)[C@H](C)/C=C(\\C)[C@@H](O)[C@@H](OC)C(=O)[C@H](C)C[C@H](C)/C=C/C=C/C=C/1C [everolimus] (first compound 0.004 µM, partner dose 0.02 µM)", "cell count": 32.6}
{"smiles": "C[C@]12O[C@H](C[C@]1(O)CO)n1c3ccccc3c3c4c(c5c6ccccc6n2c5c31)CNC4=O", "note": "[Lestaurtinib] + Cn1c(=O)n(-c2ccc(C(C)(C)C#N)cc2)c2c3cc(-c4cnc5ccccc5c4)ccc3ncc21 [NVP-BEZ235] (first compound 0.004 µM, partner dose 0.004 µM)", "cell count": 91.9}
{"smiles": "C[C@]12O[C@H](C[C@]1(O)CO)n1c3ccccc3c3c4c(c5c6ccccc6n2c5c31)CNC4=O", "note": "[Lestaurtinib] + Nc1ccn([C@@H]2O[C@H](CO)[C@@H](O)C2(F)F)c(=O)n1 [gemcitabine] (first compound 0.004 µM, partner dose 0.0004 µM)", "cell count": 71.7}
{"smiles": "Cn1cc(C2=C(c3cn(C4CCN(Cc5ccccn5)CC4)c4ccccc34)C(=O)NC2=O)c2ccccc21", "note": "[Enzastaurin] + CO[C@H]1C[C@@H]2CC[C@@H](C)[C@@](O)(O2)C(=O)C(=O)N2CCCC[C@H]2C(=O)O[C@H]([C@H](C)C[C@@H]2CC[C@@H](OCCO)[C@H](OC)C2)CC(=O)[C@H](C)/C=C(\\C)[C@@H](O)[C@@H](OC)C(=O)[C@H](C)C[C@H](C)/C=C/C=C/C=C/1C [everolimus] (first compound 0.8 µM, partner dose 0.02 µM)", "cell count": 138}
{"smiles": "C[C@]12O[C@H](C[C@]1(O)CO)n1c3ccccc3c3c4c(c5c6ccccc6n2c5c31)CNC4=O", "note": "[Lestaurtinib] + Nc1cccc2c1CN(C1CCC(=O)NC1=O)C2=O [lenalidomide] (first compound 0.004 µM, partner dose 1 µM)", "cell count": 96.5}
{"smiles": "C[C@]12O[C@H](C[C@]1(O)CO)n1c3ccccc3c3c4c(c5c6ccccc6n2c5c31)CNC4=O", "note": "[Lestaurtinib] + CN(c1ncccc1CNc1nc(Nc2ccc3c(c2)CC(=O)N3)ncc1C(F)(F)F)S(C)(=O)=O [PF562271] (first compound 0.004 µM, partner dose 0.08 µM)", "cell count": 141}
{"smiles": "C[C@]12O[C@H](C[C@]1(O)CO)n1c3ccccc3c3c4c(c5c6ccccc6n2c5c31)CNC4=O", "note": "[Lestaurtinib] + CC(=O)O[C@@]12CO[C@@H]1C[C@H](O)[C@@]1(C)C(=O)[C@H](O)C3=C(C)[C@@H](OC(=O)[C@H](O)[C@@H](NC(=O)OC(C)(C)C)c4ccccc4)C[C@@](O)([C@@H](OC(=O)c4ccccc4)[C@H]21)C3(C)C [Docetaxel] (first compound 0.004 µM, partner dose 0.0001 µM)", "cell count": 56.5}
{"smiles": "C[As](C)SC[C@H](NC(=O)CC[C@H](N)C(=O)O)C(=O)NCC(=O)O", "note": "[Darinaparsin] + O=C(Nc1ccccc1)c1cc([N+](=O)[O-])ccc1Cl [GW9662] (first compound 0.4 µM, partner dose 2 µM)", "cell count": 85.4}
{"smiles": "C[As](C)SC[C@H](NC(=O)CC[C@H](N)C(=O)O)C(=O)NCC(=O)O", "note": "[Darinaparsin] + Cc1cc(SCc2sc(-c3ccc(C(F)(F)F)c(F)c3)nc2C)ccc1OCC(=O)O [GW0742] (first compound 0.4 µM, partner dose 2 µM)", "cell count": 110}
{"smiles": "C[C@]12O[C@H](C[C@]1(O)CO)n1c3ccccc3c3c4c(c5c6ccccc6n2c5c31)CNC4=O", "note": "[Lestaurtinib] + CCCS(=O)(=O)Nc1ccc(F)c(C(=O)c2c[nH]c3ncc(Cl)cc23)c1F [PLX4720] (first compound 0.004 µM, partner dose 0.08 µM)", "cell count": 88.3}
{"smiles": "C[C@]12O[C@H](C[C@]1(O)CO)n1c3ccccc3c3c4c(c5c6ccccc6n2c5c31)CNC4=O", "note": "[Lestaurtinib] + O=C(O)[C@@H]1[O][Sb](=[O])([O][Sb]2(=[O])[O][C@H]([C@H](O)CO)[C@H](O)[C@H](C(=O)O)[O]2)[O][C@H]([C@H](O)CO)[C@@H]1O [stibogluconate] (first compound 0.004 µM, partner dose 2 µM)", "cell count": 68.1}
{"smiles": "C[C@]12O[C@H](C[C@]1(O)CO)n1c3ccccc3c3c4c(c5c6ccccc6n2c5c31)CNC4=O", "note": "[Lestaurtinib] + O=C(O)c1ccc2c(c1)nc(Nc1cccc(Cl)c1)c1ccncc12 [CX4945] (first compound 0.004 µM, partner dose 0.4 µM)", "cell count": 167}
{"smiles": "C[As](C)SC[C@H](NC(=O)CC[C@H](N)C(=O)O)C(=O)NCC(=O)O", "note": "[Darinaparsin] + O=C1NC(=O)/C(=C/c2ccc(-c3ccc(F)cc3O)o2)S1 [AS252424] (first compound 0.4 µM, partner dose 1 µM)", "cell count": 62.8}
{"smiles": "C[C@]12O[C@H](C[C@]1(O)CO)n1c3ccccc3c3c4c(c5c6ccccc6n2c5c31)CNC4=O", "note": "[Lestaurtinib] + CC(C)C[C@H](NC(=O)[C@H](Cc1ccccc1)NC(=O)c1cnccn1)B(O)O [Bortezomib] (first compound 0.004 µM, partner dose 0.001 µM)", "cell count": 65.6}
{"smiles": "C[C@]12O[C@H](C[C@]1(O)CO)n1c3ccccc3c3c4c(c5c6ccccc6n2c5c31)CNC4=O", "note": "[Lestaurtinib] + N.N.[Cl][Pt][Cl] [cisplatin] (first compound 0.004 µM, partner dose 1.6 µM)", "cell count": 80.3}
{"smiles": "C[C@]12O[C@H](C[C@]1(O)CO)n1c3ccccc3c3c4c(c5c6ccccc6n2c5c31)CNC4=O", "note": "[Lestaurtinib] + NC1(c2ccc(-c3nc4ccn5c(=O)[nH]nc5c4cc3-c3ccccc3)cc2)CCC1 [MK2206] (first compound 0.004 µM, partner dose 0.4 µM)", "cell count": 53.7}
{"smiles": "C[C@]12O[C@H](C[C@]1(O)CO)n1c3ccccc3c3c4c(c5c6ccccc6n2c5c31)CNC4=O", "note": "[Lestaurtinib] + C[C@]1(O)C[C@@H](c2nc(-c3ccc4ccc(-c5ccccc5)nc4c3)c3c(N)nccn32)C1 [OSI906] (first compound 0.004 µM, partner dose 0.4 µM)", "cell count": 83.4}
{"smiles": "C[C@]12O[C@H](C[C@]1(O)CO)n1c3ccccc3c3c4c(c5c6ccccc6n2c5c31)CNC4=O", "note": "[Lestaurtinib] + C=C(c1ccc(C(=O)O)cc1)c1cc2c(cc1C)C(C)(C)CCC2(C)C [Bexarotene] (first compound 0.004 µM, partner dose 2 µM)", "cell count": 99.6}
{"smiles": "C[C@]12O[C@H](C[C@]1(O)CO)n1c3ccccc3c3c4c(c5c6ccccc6n2c5c31)CNC4=O", "note": "[Lestaurtinib] + CN1CCN(c2ccc3nc(-c4c(N)c5c(F)cccc5[nH]c4=O)[nH]c3c2)CC1 [Dovitinib] (first compound 0.004 µM, partner dose 0.1 µM)", "cell count": 87.9}
{"smiles": "C[C@]12O[C@H](C[C@]1(O)CO)n1c3ccccc3c3c4c(c5c6ccccc6n2c5c31)CNC4=O", "note": "[Lestaurtinib] + CCCCCCCCc1ccc(CCC(N)(CO)CO)cc1 [fingolimod] (first compound 0.004 µM, partner dose 2 µM)", "cell count": 62.5}
{"smiles": "C[C@]12O[C@H](C[C@]1(O)CO)n1c3ccccc3c3c4c(c5c6ccccc6n2c5c31)CNC4=O", "note": "[Lestaurtinib] + CNC(=O)c1cc(Oc2ccc(NC(=O)Nc3ccc(Cl)c(C(F)(F)F)c3)cc2)ccn1 [sorafenib] (first compound 0.004 µM, partner dose 0.4 µM)", "cell count": 120}
{"smiles": "N.N.[Cl][Pt][Cl]", "note": "[cisplatin] + CO[C@H]1C[C@@H]2CC[C@@H](C)[C@@](O)(O2)C(=O)C(=O)N2CCCC[C@H]2C(=O)O[C@H]([C@H](C)C[C@@H]2CC[C@@H](OCCO)[C@H](OC)C2)CC(=O)[C@H](C)/C=C(\\C)[C@@H](O)[C@@H](OC)C(=O)[C@H](C)C[C@H](C)/C=C/C=C/C=C/1C [everolimus] (first compound 1.6 µM, partner dose 0.02 µM)", "cell count": 94.1}
{"smiles": "C[C@]12O[C@H](C[C@]1(O)CO)n1c3ccccc3c3c4c(c5c6ccccc6n2c5c31)CNC4=O", "note": "[Lestaurtinib] + C=CCNC1=C2C[C@@H](C)C[C@H](OC)[C@H](O)[C@@H](C)/C=C(\\C)[C@H](OC(N)=O)[C@@H](OC)/C=C\\C=C(/C)C(=O)NC(=CC1=O)C2=O [Tanespimycin] (first compound 0.004 µM, partner dose 0.002 µM)", "cell count": 93.3}
{"smiles": "C[C@]12O[C@H](C[C@]1(O)CO)n1c3ccccc3c3c4c(c5c6ccccc6n2c5c31)CNC4=O", "note": "[Lestaurtinib] + COc1ccc(Cl)c(Nc2nc3ccccc3nc2NS(=O)(=O)c2cccc(NC(=O)C(C)(C)N)c2)c1 [XL147] (first compound 0.004 µM, partner dose 0.8 µM)", "cell count": 76.8}
